From PubChem BioAssay AID686978 (National Center for Advancing Translational Sciences (NCATS), 2013)
“And” between values parts separate entries of the source, which are not always exact repeats. Equal values may be shown once. Among all 420,000 compounds or so, about 64,000 (15%) were called active. The shares of active, inactive and inconclusive entries below differ from those in the screen. Calls follow the shape of the dose curve; as a rule, active = well fitted inhibition curve with a large enough effect; inconclusive = small, poorly fitted or top-dose-only effect; inactive = flat fitted curve, though single readings scatter. Where the call is inconclusive, the potency comes from a doubtful curve fit.

Assay: qHTS for Inhibitors of human tyrosyl-DNA phosphodiesterase 1 (TDP1): qHTS in cells in absence of CPT; also: nearly all actives have a fitted effect of over 55% in size
Details: DT40 Tdp1-/- hTDP1 cells, no CPT, ATP luminescence, 48 h; activity change, negative = growth inhibition: at 46.2 µM (top of the series) unless noted
Method in brief: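 No-CPT arm: Tdp1-/-;hTDP1 DT40 cells (400/well) plus compounds, incubated ≥48 hr at 37 °C. Readout CellTiter-Glo luminescence.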
% is scaled to controls: 0 for no effect and ±100 for the full control effect; potency is read from the fitted curve at half-maximal effect; tags tell the direction and shape of the fitted curve.

SMILES	Potency	activity change, negative = growth inhibition
CC1C(c2ccccc2)N(C)C(c2ccccc2)CC1(O)c1ccccc1 (configuration not stated)	inconclusive: 29.1 µM [inhibitor, single point]	–
Cc1cc(C)c2cc(CN(CCO)Cc3nnnn3Cc3ccc(F)cc3)c(=O)[nH]c2c1	inactive	–
COc1ccc(NS(=O)(=O)c2ccc3oc(SC)nc3c2)cc1	active: 9.2 µM	–
COc1ccc(OC)c(CCNC(=O)C2CCN(c3nnc(-n4cccc4)s3)CC2)c1	inconclusive: 29.1 µM [inhibitor, single point]	–
Cc1cc(S(=O)(=O)C(CNC(=O)COc2ccc(Cl)cc2)c2cccs2)ccc1F (configuration not stated)	inconclusive: 9.2 µM [inhibitor, partial curve]	–
COC(=O)c1[nH]c2ccccc2c1NC(=O)CN1CCN(C(=O)c2ccco2)CC1	inconclusive: 6.51 µM [inhibitor, partial curve]	–
COc1cc(/C=C2\C(=N)N3N=C(S(C)(=O)=O)SC3=NC2=O)ccc1OS(=O)(=O)c1ccc(C)cc1	inconclusive: 29.1 µM [inhibitor, single point]	–
O=C(COc1cccc2ccccc12)Nc1nc2ccccc2[nH]1	inconclusive: 20.6 µM [inhibitor, single point]	–
Cc1ccc(Cl)cc1NC(=O)C(Cc1ccccc1)N1C(=O)C2C3CCC(C3)C2C1=O (configuration not stated)	active: 14.6 µM	–
CCc1ccc(NC(=O)C(C)OC(=O)CC(NC(C)=O)c2ccccc2)cc1 (configuration not stated)	–	inconclusive: -30.5% [inhibitor]
COC(=O)c1cc(S(=O)(=O)NCCc2ccc(Cl)cc2)c[nH]1	active: 11.6 µM	–
c1ccc(Cc2nnc(-c3ccccc3)o2)cc1	inactive	–
Clc1ccc(-c2nc(N3CCCCC3)nc3ccccc23)cc1	inactive	–
Cc1cccc(C(=O)c2c[nH]cc2-c2ccccc2)c1	inconclusive: 29.1 µM [inhibitor, single point]	–
CCOC(=O)C1(C)CCCCCN1C(=O)c1ccc(SC(F)(F)F)cc1 (configuration not stated)	inconclusive: 16.4 µM [inhibitor, partial curve]	–
O=C(N/N=C1\CCc2ccccc21)c1ccncc1	inactive	–
O=[N+]([O-])c1cnn(-c2nc(-c3ccccc3)cc(C(F)(F)F)n2)c1	inactive	–
O=C(Nc1cccnc1Oc1ccc(Cl)cc1)c1cccc2ccccc12	inconclusive: 18.4 µM [inhibitor, single point]	–
CCCOC(=O)c1c(N)sc(C(=O)OCC)c1C	inconclusive: 29.1 µM [inhibitor, single point]	–
O=C(NCc1csc(-c2cccs2)n1)Nc1ccc(F)cc1F	active: 11.6 µM	–
Cc1ccc(CCNC(=O)C2CCN(Cc3nc(-c4ccccc4C)oc3C)CC2)cc1	active: 18.4 µM	–
CC(C)N1CCC(=NNC(=O)c2cccs2)CC1	inactive	–
Cc1cccc(CN2C(=O)N/C(=C/c3ccc(C)s3)C2=O)c1	active: 16.4 µM	–
C=C(C)c1cccc(C(C)(C)NC(=O)Nn2cnnc2)c1	active: 0.82 µM	–

SMILES	Potency	activity change, negative = growth inhibition
O=C(NC(=S)NC1CCCCCCCCCCC1)c1cccnc1	active: 14.6 µM	–
Cc1ccc(N2C(=O)CSC23C(=O)N(CC(=O)Nc2ccc(C(C)C)cc2)c2ccccc23)cc1C (configuration not stated)	inconclusive: 29.1 µM [inhibitor, single point]	–
CC(=O)Nc1ccc(S(=O)(=O)NCC(=O)OCC(=O)NCCc2ccccc2)cc1	inactive	–
CCOC(=O)Cc1ncccc1C(=O)Nc1ccc(OC(F)(F)F)cc1	active: 14.6 µM	–
Cc1ccc(N(Cc2cc(=O)[nH]c3ccccc23)C(=O)c2ccco2)cc1	inconclusive: 20.6 µM [inhibitor, single point]	–
CCOC(=O)CNC(=O)c1cc(-c2ccc3c(c2)OCCO3)oc1C	inconclusive: 20.6 µM [inhibitor, single point]	–
Cc1ccccc1N=C/C=C1/C=C(c2ccccc2)OC(C)(C)O1	inconclusive: 18.4 µM [inhibitor, single point]	–
CCN1C(=O)S/C(=C/c2ccc(Oc3ccc([N+](=O)[O-])cn3)c(OC)c2)C1=O	active: 13 µM	–
O=C(CSc1nc(Nc2ccccc2)nc(N2CCOCC2)n1)NC1CCCCC1	inconclusive: 20.6 µM [inhibitor, single point]	–
Cc1cc(C)cc(NC(=O)c2ccc(S(=O)(=O)N(C)CC3CCCO3)cc2)c1 (configuration not stated)	inconclusive: 23.1 µM [inhibitor, single point]	–
CCCCOc1ccc(N(CC(=O)NCC2CCCO2)C(=O)CCC(=O)Nc2cc(C)ccn2)cc1 (configuration not stated)	inconclusive: 20.6 µM [inhibitor, single point]	–
O=C(NC(c1ccccc1)C(Cl)(Cl)Cl)c1ccccc1 (configuration not stated)	active: 20.6 µM	–
CC(C(=O)N1CCOCC1)(c1ccccc1)c1ccccc1	inactive	–
CCOc1ccc(NC(=O)Cn2cc(C(=O)c3ccco3)c3ccccc32)cc1	inconclusive: 23.1 µM [inhibitor, single point]	–
O=C(COc1ccccc1C(=O)O)Nc1cccc2ccccc12	inactive	–
O=C(Nc1cccnc1Cl)c1cc(-c2cccc(Cl)c2)on1	inactive	–
CCOc1ccc(CCNC(=O)CCc2cn(Cc3ccc(F)cc3)c3ccccc23)cc1	active: 20.6 µM	–
CC(C)C[C@@H](CN1CCC[C@@H]1CN1C(=S)NC[C@@H]1Cc1ccc(O)cc1)N1C[C@H](Cc2ccc(O)cc2)N(CC2CCCCC2)C1=S	active: 16.4 µM	–
CC(C)(CO)NCc1cccc(OCc2ccc(Cl)cc2)c1	inconclusive: 23.1 µM [inhibitor, single point]	–
CCOc1ccc(NC2CCCCC2NS(=O)(=O)c2ccccc2)cc1 (configuration not stated)	inactive	–
Cc1coc2cc3oc(=O)c(CC(=O)NCCc4ccccc4)c(C)c3cc12	inconclusive: 14.6 µM [inhibitor, single point]	–
Cc1ccc(Cn2cc(CN3CC(N4CCN(Cc5cccc(C)c5)CC4)CS3(=O)=O)nn2)cc1 (configuration not stated)	inconclusive: 29.1 µM [inhibitor, single point]	–
Cc1ccc(S(=O)(=O)C(C#N)c2nc3ccccc3nc2N2CCCC2)cc1 (configuration not stated)	inconclusive: 13 µM [inhibitor, partial curve]	–
CCc1ccc(N=CC2=C(O)CC(c3ccco3)CC2=O)cc1 (configuration not stated)	inactive	–

SMILES	Potency	activity change, negative = growth inhibition
CCOCCCNC(=O)c1ccc(CN2CCc3ccccc3C2)cc1	inconclusive: 20.6 µM [inhibitor, single point]	–
COc1cc(OC)c(S(=O)(=O)Nc2ccccc2N2CCOCC2)cc1NC(C)=O	inactive	–
CC(C)(C)CNC(=O)C1(C)CCN1C(=O)c1ccccc1CCc1ccccc1 (configuration not stated)	active: 16.4 µM	–
CC(C)Cn1c(N)c(C(=O)COC(=O)CCc2nc3ccccc3s2)c(=O)n(C)c1=O	active: 14.6 µM	–
CCCn1c2ccccc2c2cnn(CC(=O)NCCCN3C(C)CCCC3C)c(=O)c21 (configuration not stated)	inconclusive: 29.1 µM [inhibitor, single point]	–
CCOc1ccc(CN(C)C(=O)c2cc3ccccc3o2)cc1OC	inconclusive: 18.4 µM [inhibitor, partial curve]	–
O=C(CCC(=O)N1CCOc2ccccc21)NCc1cccnc1	inactive	–
N#Cc1ccccc1OCC(=O)Nc1ccc2c(c1)OCO2	inactive	–
O=C(Nc1ccc(F)c(F)c1)C1=COCCO1	inactive	–
COc1ccc(S(=O)(=O)N2CCn3c2nc2ccccc23)cc1	inconclusive: 4.11 µM [inhibitor, full curve]	–
CCc1ccccc1N(C)C(=O)c1cc2c(=O)oc3ccccc3c2s1	inconclusive: 29.1 µM [inhibitor, single point]	–
COc1ccccc1C(=O)Nc1ccc2c(c1)CCCN2C(=O)c1cccs1	active: 20.6 µM	–
O=C(Nc1ccc2nc3n(c(=O)c2c1)CCCCC3)C(=O)N1CCN(c2ccccc2F)CC1	inconclusive: 20.6 µM [inhibitor, single point]	–
Cc1ccc(-c2csc(NCCc3nc4cc(Cl)c(Cl)cc4n3CCOCCO)n2)cc1	inconclusive: 29.1 µM [inhibitor, single point]	–
Cc1cccn2cc(-c3ccc(F)cc3)cc12	inconclusive: 9.2 µM [inhibitor, partial curve]	–
CCCn1c(SCC(=O)N2N=C3/C(=C/c4ccc(OC)cc4)CCCC3C2c2ccc(OC)cc2)n[nH]c1=O (configuration not stated)	inconclusive: 29.1 µM [inhibitor, single point]	–
Cc1cccc(N(CC(=O)NC2CCCCC2)C(=O)Cn2nnc(-c3ccc(C)o3)n2)c1	inconclusive: 29.1 µM [inhibitor, single point]	–
Cc1cn(Cc2ccccc2Cn2cc(C)c(=O)[nH]c2=O)c(=O)[nH]c1=O	inactive	–
COc1ccc(OC)c(NC(=O)c2cnn(-c3ccc(C)cc3)c2C2CCNCC2)c1	active: 25.9 µM	–
COc1cc(S(=O)(=O)N2CCN(Cc3ccc4c(c3)OCO4)CC2)c(C)cc1C	inconclusive: 13 µM [inhibitor, partial curve, poor fit]	–
COc1ccc(-c2cnnn2-c2ccc(NC(=O)c3ccc(S(=O)(=O)N4CCCCC4)cc3)cc2)cc1	inconclusive: 20.6 µM [inhibitor, single point]	–
CC(C)[C@H](CN1CCC[C@H]1CN1C(N)=NC[C@H]1C(C)C)N1C[C@@H](Cc2ccccc2)N(CCCC2CCCC2)C1=N	inconclusive: 20.6 µM [inhibitor, single point]	–
CCCCCCCCCC(=O)NO	inconclusive: 26.6 µM [inhibitor, single point] and inconclusive: 33.5 µM [inhibitor, single point]	–
OC(CC#CCN1CCCCC1)(c1ccccc1)c1ccccc1	inconclusive: 25.9 µM [inhibitor, single point]	–
